In the supplement of paper PMC4967469:

Key:
Test in all cases: Viability of human cancer cell lines after 72 h of drug (GDSC screen)
[1] = compound: O=C(NCCCNc1nc(Nc2cccc(NC(=O)N3CCCC3)c2)ncc1I)c1cccs1 [BX-795]; details: top dose 5 µM; top dose inferred
Experimental: (§1)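 Human cancer cell lines in 384-well plates, medium with 10% serum, drug for 72 h over a 256-fold dose range (nine 2-fold or five 4-fold steps up to the top dose). Adherent lines were fixed and stained with the nucleic acid dye Syto60, suspension lines read with resazurin; signal relative to control wells, capped at 0 and 100%. One two-parameter sigmoid per drug and line, fitted in a mixed model over all curves with the slope shared within a line.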

[2] = compound: Cc1cccc(-c2[nH]c(C(C)(C)C)nc2-c2ccc3c(c2)OCO3)n1 [SB-505124]; details: top dose 10 µM; top dose inferred
Experimental: as §1

[3] = compound: CC1=C(/C=C/C(C)=C/C=C/C(C)=C/C(=O)O)C(C)(C)CCC1 [Tretinoin]; details: top dose 10 µM; top dose inferred
Experimental: as §1

[4] = compound: COc1cc2c(NC3CCN(C(C)C)CC3)nc(C3CCCCC3)nc2cc1OCCCN1CCCC1 [UNC0638]
Experimental: as §1

[5] = compound: CCn1c(-c2nonc2N)nc2c(C#CC(C)(C)O)ncc(OC[C@H]3CCCNC3)c21 [GSK690693]; details: top dose 10.24 µM; top dose inferred
Experimental: as §1

[6] = top dose 20 µM, screen: GDSC drug entry 1236, top dose inferred
[7] = top dose 40 µM, screen: GDSC drug entry 245

| Cell Line | AUC [1] | IC50 [1] [µM] | AUC [2] | IC50 [2] [µM] | AUC [3] | IC50 [3] [µM] | AUC [4, 6] | IC50 [4, 6] [µM] | AUC [4, 7] | IC50 [4, 7] [µM] | AUC [5] | IC50 [5] [µM] |
| --- | --- | --- | --- | --- | --- | --- | --- | --- | --- | --- | --- | --- |
| A375 (melanoma, adherent) | 0.718 | 1.13 | 0.962 | > 10 | 0.965 | > 10 | 0.967 | > 20 | 0.892 | 32.4 | – | – |
| BALL-1 (B-cell leukaemia, suspension) | 0.947 | 4.96 | 0.99 | > 10 | 0.976 | > 10 | 0.897 | 12.8 | – | – | – | – |
| BT-549 (breast, adherent) | 0.869 | > 5 | 0.976 | > 10 | 0.979 | > 10 | 0.775 | 11.2 | – | – | – | – |
| C-33-A (cervix, adherent) | 0.963 | > 5 | 0.91 | > 10 | 0.979 | > 10 | 0.949 | > 20 | 0.74 | 12.1 | 0.822 | 6.03 |
| CL-34 (large intestine, adherent) | 0.934 | > 5 | 0.986 | > 10 | 0.987 | > 10 | 0.983 | > 20 | – | – | – | – |
| CL-40 (large intestine, adherent) | 0.861 | > 5 | 0.972 | > 10 | 0.952 | > 10 | 0.928 | > 20 | – | – | – | – |
| CML-T1 (chronic myeloid leukaemia, suspension) | 0.856 | 2.98 | 0.964 | > 10 | 0.88 | 7.36 | 0.833 | 9.94 | – | – | – | – |
| CRO-AP2 (B-cell lymphoma, suspension) | 0.657 | 0.799 | 0.947 | > 10 | 0.986 | > 10 | 0.73 | 5.06 | – | – | – | – |
| DIFI (large intestine, adherent) | 0.925 | > 5 | 0.986 | > 10 | 0.982 | > 10 | 0.979 | > 20 | – | – | – | – |
| EW-22 (Ewing sarcoma, adherent) | 0.845 | 3.41 | 0.986 | > 10 | 0.98 | > 10 | 0.785 | 8.19 | – | – | – | – |
| HCC202 (breast, adherent) | 0.979 | > 5 | 0.958 | > 10 | 0.981 | > 10 | 0.825 | 19.1 | 0.612 | 5.75 | – | – |
| HCC-366 (non-small cell lung carcinoma, adherent) | 0.934 | > 5 | 0.981 | > 10 | 0.988 | > 10 | 0.835 | 13.9 | – | – | – | – |
| IGROV-1 (ovary, adherent) | 0.878 | > 5 | 0.973 | > 10 | 0.977 | > 10 | 0.973 | > 20 | – | – | – | – |
| JEKO-1 (B-cell lymphoma, suspension) | 0.598 | 0.573 | 0.97 | > 10 | 0.917 | > 10 | 0.807 | 9.73 | – | – | – | – |
| JHOS-4 (ovary, adherent) | 0.98 | > 5 | – | – | 0.98 | > 10 | – | – | – | – | – | – |
| JHU-029 (head and neck, adherent) | 0.903 | > 5 | 0.956 | > 10 | 0.98 | > 10 | 0.728 | 6.57 | – | – | – | – |
| Jurkat (T-cell leukaemia, suspension) | 0.991 | > 5 | 0.992 | > 10 | 0.973 | > 10 | 0.783 | 6.87 | – | – | – | – |
| KARPAS-1106P (B-cell lymphoma, suspension) | 0.756 | 1.44 | 0.993 | > 10 | 0.979 | > 10 | 0.812 | 8.49 | – | – | – | – |
| KATOIII (stomach, semi-adherent) | 0.799 | 2.17 | 0.975 | > 10 | 0.923 | > 10 | 0.905 | > 20 | – | – | – | – |
| KNS-62 (lung squamous cell carcinoma, adherent) | 0.852 | > 5 | 0.961 | > 10 | 0.962 | > 10 | 0.939 | > 20 | – | – | – | – |
| KP-1N (pancreas, adherent) | 0.881 | > 5 | 0.963 | > 10 | 0.976 | > 10 | 0.734 | 6.02 | – | – | – | – |
| LN-229 (glioma, adherent) | 0.974 | > 5 | 0.982 | > 10 | 0.987 | > 10 | 0.925 | > 20 | 0.85 | 30 | 0.987 | > 10.2 |
| MEL-HO (melanoma, adherent) | 0.901 | > 5 | 0.839 | 6.94 | 0.898 | > 10 | 0.806 | 10.3 | – | – | – | – |
| MHH-CALL-2 (B-cell leukaemia, suspension) | 0.996 | > 5 | 0.968 | > 10 | 0.993 | > 10 | 0.865 | 10.5 | – | – | – | – |
| MKN7 (stomach, adherent) | 0.889 | > 5 | 0.982 | > 10 | 0.981 | > 10 | 0.843 | > 20 | – | – | – | – |
| MOLM-16 (acute myeloid leukaemia, suspension) | 0.745 | 1.41 | 0.969 | > 10 | 0.945 | > 10 | 0.78 | 7.23 | – | – | – | – |
| MOLT-16 (T-cell lymphoblastic leukaemia, suspension) | 0.807 | 1.97 | 0.896 | 7.92 | 0.889 | 7.41 | 0.777 | 6.44 | – | – | – | – |
| NCC010 (kidney, adherent) | 0.839 | 3.77 | 0.984 | > 10 | 0.986 | > 10 | 0.74 | 6.44 | – | – | – | – |

IC50 is the fitted dose that halves viability relative to control wells, and lower means more sensitive; where the fit passes the top or lowest dose, that dose stands as a limit. AUC is the area under the same curve over the 256-fold range up to the top dose, as a fraction; values near 1 show little effect. Where the top dose is marked as inferred, it was derived from the fitted curves, not read from the paper. For some of these results: An entry number marks a drug with two screens in the source, which often give different values.
